# Article PMC12136788
# This is one part of the list.
# B1: chr17:7460970:7461071:-|3pUTR|ENSG00000174282|msi1|total|mutant (ssRNA)
# RNA: GGGAGUUCUACAGUCCGACGAUCGGAUGGAGAAGGGAAUCUACUUUCUCCCUGUUUUUUUUUCCUGAUGGUUUCUCCCAGACCCGACCAAACCGCCAGAAAAAUGACCGGGGUCGGAUGGGUGGGUAAGCCCAGGAUUUGCACCAACAGAGGAUUGAGCAUCA
# B2: chrX:154027874:154027956:-|3pUTR|ENSG00000169057|msi1_unk|FALSE|overlapping (ssRNA)
# RNA: GGGAGUUCUACAGUCCGACGAUCUGGUUAGAAGUGAGGGAGUUUGCCCCGUUCUGUUUGUAGAGUCUCAUAGUUGGACUUUCUAGCAUAUAUGUGUCCAUUUCCUUAUGCUGUAAAAGCAAGUCCUGCAACCAAACUCCCAUCCAACAGAGGAUUGAGCAUCA
# B3: chr1:93152962:93153063:-|3pUTR|ENSG00000117500|msi1|FALSE|bound_elsewhere (ssRNA)
# RNA: GGGAGUUCUACAGUCCGACGAUCGCUGGAAUUCUUGAUGAGCAAUAAUGAUAACCAGAGAGUGAUUUCAUUUACACUCAUAGUAGUAUAAAAAGAGAUACAUUUCCCUCUUAGGCCCCUGGGAGAAGAGCAGCUUAGAUUUCCCAACAGAGGAUUGAGCAUCA
# B4: chr1:225494445:225494546:-|3pUTR|ENSG00000154380|msi1|FALSE|unique (ssRNA)
# RNA: GGGAGUUCUACAGUCCGACGAUCUUGGGUGUUCCCUCUUCUUAUUUUCUCUCUGCCCACCUUGACACAGUAACUUCCUCUUAUAGUCAAGAUGAUGAUUAAGUGUUUAAUUUUUAUUCCAUUUUGUUCUGCAACACGUUCAGGCAACAGAGGAUUGAGCAUCA
# B5: chr14:73713276:73713377:-|CDS|ENSG00000176903|unk|FALSE|unique (ssRNA)
# RNA: GGGAGUUCUACAGUCCGACGAUCGGGCAAAGGAGGGGUCUGGAAAGUGUUAUUUAAGCCCCCAACUUCUGAUGCUGAAUUUUUAGAAAGAUUGCACCUCUUCCUAGCUAGAGAGGGGUGGACCGUGCAAGAUGUUGCCCGUGUCAACAGAGGAUUGAGCAUCA
# B6: chr6:111694403:111694505:-|CDS|ENSG00000010810|unk|FALSE|bound_elsewhere (ssRNA)
# RNA: GGGAGUUCUACAGUCCGACGAUCAAUGGCUUACAUCGAGCGCAUGAAUUAUAUCCAUAGAGAUCUGCGAUCAGCAAACAUUCUAGUGGGGAAUGGACUCAUAUGCAAGAUUGCUGACUUCGGAUUGGCCCGAUUGAUAGAAGACAACAGAGGAUUGAGCAUCA
# B7: ENSG00000079335:stop:overlap|stop_codon|ENSG00000079335|stop_codon|NA|stop_codon (ssRNA)
# RNA: GGGAGUUCUACAGUCCGACGAUCUUGGUGGAAAUCUUUCAAAAACACAAAACAUGGAACGAUUUGGAGAGGUAAGUUUUCCCUAGGAGAUUCUAUCUUCUUAAAACUGAUGUUCUGCAUUUGUUUCUCAGUUGGACCUAUAUACAACAGAGGAUUGAGCAUCA
# B8: chr2:240466480:240466663:+|3pUTR|ENSG00000063660|msi1|total|mutant (ssRNA)
# RNA: GGGAGUUCUACAGUCCGACGAUCGGAGCCAGUGUGCCCAAAAGCCAUGUAUUUCAGGGACCUCAGGGGCACCUCCGGCUGCCCCGCCCUCCCCCCAGCUCCCUGCACCGCCGCAGAAGCAGCCCCUCGAGGCCUACAGAGGAGCAACAGAGGAUUGAGCAUCA
# B9: chr12:118033712:118033825:-|3pUTR|ENSG00000176871|unk|total|mutant (ssRNA)
# RNA: GGGAGUUCUACAGUCCGACGAUCCCUCCGCUGGGAACGAUGGCUUCUGCCCCGUACCUAUCCUUGUGUUUCUGAUGCAGUGGCCGCAUUGGUUCAAGUUCUCUCCUGCUGUGGUCAGAGUUGCUUCGAUGUUGGCCAAGUGCUCAACAGAGGAUUGAGCAUCA
# B10: chr6:149410404:149410522:+|3pUTR|ENSG00000055208|unk|total|mutant (ssRNA)
# RNA: GGGAGUUCUACAGUCCGACGAUCUUAUAUUUCUAUAUGUACCGUGUAACCGCCUUUUGUUAACUAAUUUUCUUUUUUCCUUUCCGUAAUUAAGCACGAUCAUGUCCCUUUUUAAGCCUUACCUGAGAGGAACAAUGCCUUAAACAACAGAGGAUUGAGCAUCA
# B11: chr12:49764829:49764866:+|3pUTR|ENSG00000139644|msi1_unk|FALSE|overlapping (ssRNA)
# RNA: GGGAGUUCUACAGUCCGACGAUCACUUUUAAAGAAAAUACCUAACAGAUUUUUAAUAUAGUUAUCUCUACCACUUUCUUUUCUAGUUUCUUGAUUUUCAGCUCAGGCUGCAUUCUAACUCAUACUGUGAAGACAAAGGUGUUUCAACAGAGGAUUGAGCAUCA
# B12: chr8:116643852:116643953:-|3pUTR|ENSG00000147677|unk|FALSE|unique (ssRNA)
# RNA: GGGAGUUCUACAGUCCGACGAUCUGUUGUGAAUGAGGAAUUAGGAAUUAGGAGAAUGGUAGUACAUUGGGAAAAACAUAUUUUAGUAAUUUUUAUAUUUUAAAGAUAAUCACAGAUUUUGCUGUUUGUGCAUCACCAAAAUCACAACAGAGGAUUGAGCAUCA
# B13: chr11:9429001:9429102:+|CDS|ENSG00000205339|msi1_unk|FALSE|overlapping (ssRNA)
# RNA: GGGAGUUCUACAGUCCGACGAUCGGUACUUCACUAUUUUUGUGAAGUGAAGUUCAAAAGUGAUCAGAACCUUCAAACAGCCUUAGAGCUAACAAGAAGAUGUCUGAUUGAUGAUAGAGAAAUGCCUGUGAAAGUGGAAGCUGCCAACAGAGGAUUGAGCAUCA
# B14: chr5:72208420:72208520:+|3pUTR|ENSG00000131711|msi1_unk|total|mutant (ssRNA)
# RNA: GGGAGUUCUACAGUCCGACGAUCCUCAUGAUCAUGACCUUUUUGGCCGUAUUCUUAAACAAAAUUCUACAGAGACUAAAUGUCCGCGAUGAUCCUCCAUUUUCAAUUUUAACCAAUUCUGUCCCCUUUCUCAAAACCCUGAGCCAACAGAGGAUUGAGCAUCA
# Molecular target: MSI1 full-length (mouse, UniProt Q61474 1-362)
# Assay: nsRBNS (natural sequence RNA bind-n-seq); RBNS binding buffer (assumed for nsRBNS): 25 mM Tris pH 7.5, 150 mM KCl, 3 mM MgCl2, 0.01% Triton X-100, 500 ug/ml BSA, 20 U/ml SUPERase-In, 4 C; UNK is unkempt and MSI1 is Musashi-1; names of the RNAs are library labels; protein concentration not given here; high values mean tight binding
# UniProt Q61474, sequence (Q61474 whole entry): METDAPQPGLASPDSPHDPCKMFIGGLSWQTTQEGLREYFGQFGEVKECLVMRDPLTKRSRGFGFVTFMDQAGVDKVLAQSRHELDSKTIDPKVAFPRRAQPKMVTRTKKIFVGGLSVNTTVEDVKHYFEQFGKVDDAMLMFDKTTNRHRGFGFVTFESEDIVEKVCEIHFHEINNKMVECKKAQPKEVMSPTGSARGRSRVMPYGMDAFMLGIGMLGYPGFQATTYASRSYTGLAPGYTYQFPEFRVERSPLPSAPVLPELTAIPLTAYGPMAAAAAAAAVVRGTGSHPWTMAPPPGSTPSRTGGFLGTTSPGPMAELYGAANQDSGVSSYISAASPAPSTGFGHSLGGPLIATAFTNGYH
row,Binder,binding signal
1,B1,0.32 enrichment R
2,B2,0.756 enrichment R
3,B3,12.1 enrichment R
4,B4,0.951 enrichment R
5,B5,1.19 enrichment R
6,B6,0.4 enrichment R
7,B7,4.56 enrichment R
8,B8,0.43 enrichment R
9,B9,0.348 enrichment R
10,B10,11.2 enrichment R
11,B11,3.05 enrichment R
12,B12,7.02 enrichment R
13,B13,0.269 enrichment R
14,B14,0.628 enrichment R
